Laboratory results from the supplement of paper PMC9446081.
The campaign covered roughly 39,000 compounds. About 220 (0.56%) showed activity. The list shows a part of the results.

tested on: Escherichia coli K-12 BW25113; experiment: relative growth (OD600 normalised to plate interquartile mean) (fraction); higher = less growth inhibition, active = 0.2 or less; details: 50 µM; LB; incubation time: overnight (16-24 h)
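Also: static incubation at 37 °C against the wild-type strain, values averaged over two biological replicates.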

`CNC[C@@H]1OCCCC[C@H](C)Oc2ccc(NC(=O)Nc3cccc4ccccc34)cc2C(=O)N([C@@H](C)CO)C[C@@H]1C` was tested. Which relative growth did it give?
Its relative growth is inactive: 0.995.

For `C[C@@H]1CN([C@H](C)CO)S(=O)(=O)c2ccc(C3=CCCC3)cc2O[C@H]1CN(C)S(=O)(=O)c1ccc(F)cc1`, which relative growth is on record?
The relative growth was inactive: 1.04.

For `O=C(C[C@H]1CC[C@@H]2[C@H](COC[C@H](O)CN2S(=O)(=O)c2ccccc2)O1)NCc1ccc(-c2ccccc2)cc1`, which relative growth is on record?
Its relative growth is inactive: 0.994.

`CC(C)NC(=O)N(C)C[C@H]1Oc2ccc(NC(=O)C3CCCCC3)cc2C(=O)N([C@@H](C)CO)C[C@H]1C` was tested. Which relative growth did it give?
Its relative growth is inactive: 0.982.

With `COc1ccc([C@H]([C@@H](O)Cc2ccccc2)N(C[C@H](/C=C/c2ccccc2)CC(=O)N(C)C)[C@@H](Cc2ccccc2)C(OC)OC)cc1` as the compound, how does the relative growth read?
The relative growth was inactive: 0.898.

For `C[C@@H](O)C#Cc1cnc2c(c1)C(=O)N([C@@H](C)CO)C[C@H](C)[C@H](CN(C)C(=O)CN1CCOCC1)O2`, which relative growth is on record?
Its relative growth is inactive: 1.

How did the relative growth turn out when `C[C@@H]1CN([C@@H](C)CO)C(=O)c2cc(NC(=O)Cn3cnnn3)ccc2O[C@@H]1CN(C)Cc1ccc(Oc2ccccc2)cc1` was run?
The relative growth was inactive: 0.996.

Which relative growth does the source give for `C[C@H]1CC(=O)Nc2c1c(N)nn2C` here?
Its relative growth is inactive: 1.02.

With `O=C(C[C@H]1C=C[C@H](NC(=O)Nc2ccc3c(c2)OCO3)[C@H](CO)O1)NCCCN1CCOCC1` as the compound, how does the relative growth read?
Its relative growth is inactive: 0.987.

With `C[C@@H]1CCCCO[C@H](CN(C)C(=O)Cc2ccccc2)[C@@H](C)CN([C@@H](C)CO)C(=O)c2cc(NC(=O)NC3CCCCC3)ccc2O1` as the compound, how does the relative growth read?
Its relative growth is inactive: 1.03.

For `NCc1ccc(-c2ncccn2)cc1`, which relative growth is on record?
The relative growth was inactive: 0.989.

With `C[C@@H]1CN([C@H](C)CO)C(=O)c2cc(NS(=O)(=O)c3ccc(F)cc3)ccc2O[C@@H](C)CCCCO[C@H]1CN(C)C(=O)Nc1ccc(F)cc1` as the compound, how does the relative growth read?
The relative growth was inactive: 1.02.

How did the relative growth turn out when `COc1ccc2c3c([nH]c2c1)[C@H](CO)N(C[C@]13CCN(CC1)CC1CCCC1)S(=O)(=O)c1cn(cn1)C` was run?
Its relative growth is inactive: 0.985.

How did the relative growth turn out when `CC(C)NC(=O)Nc1ccc2c(c1)C(=O)N([C@H](C)CO)C[C@@H](C)[C@@H](CN(C)Cc1ccc(Oc3ccccc3)cc1)O2` was run?
The relative growth was inactive: 0.946.

With `Cc1noc(C)c1S(=O)(=O)N(C)C[C@H]1Oc2ccc(NC(=O)CCN3CCOCC3)cc2C(=O)N([C@@H](C)CO)C[C@H]1C` as the compound, how does the relative growth read?
Its relative growth is inactive: 1.

`CN1C[C@H](C#N)CC1=O` was tested. Which relative growth did it give?
The relative growth was inactive: 0.983.

With `O=C(C[C@@H]1CC[C@H]2[C@@H](COC[C@@H](O)CN2S(=O)(=O)c2cccc(Cl)c2)O1)N1CCOCC1` as the compound, how does the relative growth read?
The relative growth was inactive: 0.992.

For `COc1ccc(CN(C)C[C@H]2Oc3ccc(NC(=O)C4CC4)cc3CC(=O)N([C@H](C)CO)C[C@@H]2C)cc1`, which relative growth is on record?
The relative growth was inactive: 0.987.

Which relative growth does the source give for `C[C@@H]1CN([C@@H](C)CO)C(=O)c2cc(NC(=O)CCC(F)(F)F)ccc2O[C@@H](C)CCCCO[C@H]1CN(C)C(=O)c1ccccc1` here?
Its relative growth is inactive: 0.999.

`C[C@H](O)C#Cc1ccc2c(c1)O[C@H](CN(C)C)[C@H](C)CN([C@H](C)CO)S2(=O)=O` was tested. Which relative growth did it give?
Its relative growth is inactive: 1.

With `Cn1c(=O)n2n(c1=O)[C@H](C1CC1)C=C1CN3[C@@H]([C@H](CCn4cc(CCC(=O)NO)nn4)OC(=O)[C@@H]3Cc3ccccc3)[C@@H]12` as the compound, how does the relative growth read?
The relative growth was inactive: 0.955.

With `C[C@H]1CN([C@@H](C)CO)C(=O)Cc2cc(NC(=O)CCCCCC(=O)Nc3ccccc3N)ccc2O[C@H]1CN(C)CC1CCCCC1` as the compound, how does the relative growth read?
The relative growth was inactive: 1.02.

For `COc1ccc(NC(=O)Nc2cccc3c2O[C@@H](CN(C)Cc2ccc(C(F)(F)F)cc2)[C@H](C)CN([C@@H](C)CO)C3=O)cc1`, which relative growth is on record?
The relative growth was inactive: 0.773.

How did the relative growth turn out when `CCN(CC)C(=S)SSC(=S)N(CC)CC` was run?
The relative growth was inactive: 0.412.

For `C[C@@H]1CN([C@@H](C)CO)C(=O)c2cccc(NS(=O)(=O)c3ccc(Cl)cc3)c2O[C@H]1CN(C)Cc1ccc(C(=O)Nc2ccccc2N)cc1`, which relative growth is on record?
The relative growth was inactive: 1.03.

For `COc1ccccc1C#Cc1ccc2c(c1)O[C@@H](CN(C)Cc1ccncc1)[C@H](C)CN([C@@H](C)CO)S2(=O)=O`, which relative growth is on record?
Its relative growth is inactive: 1.02.

For `COc1ccc(COCC23Oc4ccccc4[C@H]([C@H]2CO)n2c(c4c(c(C(C)=O)c2=O)C(=O)N(C)C4=O)N3C)cc1`, which relative growth is on record?
The relative growth was inactive: 1.

How did the relative growth turn out when `CN1C(=O)c2cc(NC(=O)C3CCOCC3)ccc2OC[C@H]2O[C@H](CC(=O)NCc3ccccc3F)CC[C@H]21` was run?
The relative growth was inactive: 0.984.

For `CC(=O)OC1CC2C(C)(C)C(O)CCC2(C)C2CCC3(C)C(c4ccoc4)OC(=O)C4OC43C12C` (configuration not stated), which relative growth is on record?
The relative growth was inactive: 0.998.

How did the relative growth turn out when `C[C@@H]1CCCCO[C@@H](CN(C)C(=O)NC2CCCCC2)[C@@H](C)CN([C@H](C)CO)C(=O)c2cc(NS(=O)(=O)c3cccs3)ccc2O1` was run?
Its relative growth is inactive: 1.01.

How did the relative growth turn out when `Cc1ccc(S(=O)(=O)N(C)C[C@H]2Oc3ccc(NS(C)(=O)=O)cc3CC(=O)N([C@@H](C)CO)C[C@@H]2C)cc1` was run?
The relative growth was inactive: 1.01.

How did the relative growth turn out when `C[C@@H]1CCCCO[C@@H](CN(C)C(=O)Nc2ccc(F)cc2)[C@@H](C)CN([C@H](C)CO)C(=O)c2cc(NC(=O)c3ccncc3)ccc2O1` was run?
The relative growth was inactive: 0.993.

Which relative growth does the source give for `COc1ccc(O)cn1` here?
Its relative growth is inactive: 1.02.

`C[C@H](CO)N1C[C@H](C)[C@@H](CN(C)C(=O)NC2CCCCC2)OCc2ccccc2-c2c(n(C)c3ccccc23)C1=O` was tested. Which relative growth did it give?
The relative growth was inactive: 0.981.

How did the relative growth turn out when `C[C@H]1CN([C@@H](C)CO)C(=O)CCCn2nncc2CO[C@H]1CN(C)C(=O)Nc1ccc(C(F)(F)F)cc1` was run?
Its relative growth is inactive: 0.951.

With `CC(C)CC#Cc1ccc2c(c1)O[C@@H](CN(C)Cc1cncnc1)[C@@H](C)CN([C@H](C)CO)S2(=O)=O` as the compound, how does the relative growth read?
The relative growth was inactive: 1.01.

With `COc1ccc(NC(=O)Nc2cccc3c2O[C@H](CN(C)S(C)(=O)=O)[C@@H](C)CN([C@H](C)CO)C3=O)cc1` as the compound, how does the relative growth read?
Its relative growth is inactive: 1.01.

`Cc1noc(C)c1NC(=O)N(C)C[C@@H]1OCCCC[C@H](C)Oc2ccc(NC(=O)Nc3ccc(F)cc3)cc2C(=O)N([C@@H](C)CO)C[C@H]1C` was tested. Which relative growth did it give?
The relative growth was inactive: 1.

With `C[C@@H]1CN([C@@H](C)CO)C(=O)Cc2cc(NS(=O)(=O)c3cn(C)cn3)ccc2O[C@H]1CN(C)C` as the compound, how does the relative growth read?
The relative growth was inactive: 0.997.

With `CCn1c(=O)c(-c2cc(NC(=O)Nc3ccccc3)c(F)cc2Br)cc2cnc(NC)cc21` as the compound, how does the relative growth read?
Its relative growth is inactive: 1.01.

With `C[C@@H]1CN([C@@H](C)CO)C(=O)c2cc(Br)cnc2O[C@H]1CN(C)S(=O)(=O)c1ccccc1` as the compound, how does the relative growth read?
The relative growth was inactive: 0.987.

With `COCCN1CCC(C(=O)NO)(S(=O)(=O)c2ccc(Oc3ccc(OC(F)(F)F)cc3)cc2)CC1` as the compound, how does the relative growth read?
Its relative growth is inactive: 0.705.

How did the relative growth turn out when `COc1ccc(NC(=O)N(C)C[C@H]2OCCCC[C@H](C)Oc3ccc(NC(=O)Nc4ccccc4)cc3C(=O)N([C@H](C)CO)C[C@@H]2C)cc1` was run?
Its relative growth is inactive: 1.03.

`COc1cc2c(cc1OC)CN(C(=O)[C@H]1[C@@H]3C(=O)O[C@@H](c4ccccc4)[C@@H](c4ccccc4)N3[C@@H](c3ccc(OCCO)cc3)[C@]13C(=O)Nc1ccc(C#CCCO)cc13)CC2` was tested. Which relative growth did it give?
Its relative growth is inactive: 1.06.

For `Cc1ccc(CN)cc1Cl`, which relative growth is on record?
Its relative growth is inactive: 0.98.

How did the relative growth turn out when `O=c1[nH]c(=O)c2cc(Br)ccc2[nH]1` was run?
The relative growth was inactive: 1.02.

`C[C@@H]1CN([C@@H](C)CO)S(=O)(=O)c2ccc(C3=CCCC3)cc2O[C@@H]1CN(C)C(=O)Cc1ccncc1` was tested. Which relative growth did it give?
Its relative growth is inactive: 1.02.

`CNC[C@@H]1Oc2ccc(NS(=O)(=O)c3cn(C)cn3)cc2C(=O)N([C@H](C)CO)C[C@@H]1C` was tested. Which relative growth did it give?
The relative growth was inactive: 0.99.

`Cc1ccc(S(=O)(=O)N(C)C[C@H]2Oc3ccc(NS(C)(=O)=O)cc3CC(=O)N([C@H](C)CO)C[C@@H]2C)cc1` was tested. Which relative growth did it give?
The relative growth was inactive: 0.988.

`O=C(C[C@H]1CC[C@@H]2[C@H](COC[C@@H](O)CN2S(=O)(=O)c2ccccc2Cl)O1)NCc1ccccc1Cl` was tested. Which relative growth did it give?
Its relative growth is inactive: 0.993.

For `C=CCOC(=O)[C@H]1[C@@H]2C(=O)O[C@@H](c3ccccc3)[C@@H](c3ccccc3)N2[C@@H](c2ccc(OCCOC(=O)[C@@H]3C[C@@H]4C(=O)N[C@@H](CCCCNC(C)=O)C(=O)N4[C@@H]3c3cccc(OCCO)c3)cc2)[C@]12C(=O)Nc1ccc(I)cc12`, which relative growth is on record?
The relative growth was inactive: 1.

With `C[C@@H]1CN([C@@H](C)CO)C(=O)Cc2cc(NS(=O)(=O)c3ccc(F)cc3)ccc2O[C@@H]1CN(C)S(=O)(=O)c1ccc(F)cc1` as the compound, how does the relative growth read?
The relative growth was inactive: 0.897.

How did the relative growth turn out when `CC(=O)NCC(=O)N1CCC2(CC1)CN(c1cccnc1)C(=O)CO2` was run?
The relative growth was inactive: 0.985.

For `CC1(C)NCCNC1=O`, which relative growth is on record?
The relative growth was inactive: 0.97.

`CS(=O)(=O)c1nnc(N)s1` was tested. Which relative growth did it give?
Its relative growth is inactive: 1.02.

`C[C@H](CO)N1C[C@H](C)[C@@H](CN(C)Cc2cccc3c2OCCCO3)OCc2ccccc2-c2ccccc2C1=O` was tested. Which relative growth did it give?
Its relative growth is inactive: 0.981.

How did the relative growth turn out when `C[C@@H]1CN([C@@H](C)CO)C(=O)Cc2cc(NC(=O)Nc3ccccc3)ccc2O[C@H]1CN(C)Cc1ccc(C(F)(F)F)cc1` was run?
Its relative growth is inactive: 1.03.

With `COc1nc(N)nc2c1ncn2[C@@H]1O[C@H](CO)[C@@H](O)[C@@H]1O` as the compound, how does the relative growth read?
Its relative growth is inactive: 1.01.

For `C[C@H](CO)N1C[C@H](C)[C@@H](CN(C)Cc2ccc(Oc3ccccc3)cc2)Oc2cc(-c3ccncc3)ccc2S1(=O)=O`, which relative growth is on record?
Its relative growth is inactive: 1.01.

Which relative growth does the source give for `C=CCC[C@H](Cc1ccc(F)cc1)C(=O)OC[C@@H](Cc1c[nH]c2ccccc12)NC(=O)[C@H](CC=C)CC(=O)N(CCO)Cc1ccccc1` here?
The relative growth was inactive: 1.11.

For `CO[C@H]1O[C@H](CO)[C@@H](OC(=O)Nc2ccccc2)[C@@H]2OC(=O)[C@H](Cc3cccc(Br)c3)C/C=C/C[C@@H](Cc3cccc(Br)c3)C(=O)O[C@@H]12`, which relative growth is on record?
Its relative growth is inactive: 0.989.

`Cc1noc(C)c1NC(=O)Nc1ccc2c(c1)C(=O)N([C@@H](C)CO)C[C@H](C)[C@@H](CN(C)C(=O)C1CCCCC1)OCCCC[C@@H](C)O2` was tested. Which relative growth did it give?
Its relative growth is inactive: 0.998.
